In patent publication US9340769B2 (priority 2008, dated 2016):

Experiments:
[1] = test system: RAW264.7 cells co-cultured with P. acnes; test: P. acnes-mediated cell death: neutralization assay / ASMase inhibitor, RAW264.7; conditions: desipramine 10 μM, 14 hr; 45.4% with PBS vehicle
P. acnes = test: Tissue chamber model: MIP-2 in tissue chamber fluid by ELISA after P. acnes injection; conditions: sialidase-immunized vs GFP-immunized; 3 days after P. acnes 10^7 CFU

Molecule	P. acnes-induced cell death, reduced by (RAW264.7) [1]	P. acnes-induced increase of MIP-2 cytokine, reduced by (P. acnes)
CNCCCN1c2ccccc2CCc2ccccc21 [desipramine]	30.6%	–
sialidase: recombinant P. acnes cell wall-anchored sialidase (gi|50843035) 6×NH fusion protein; enzyme and, with Freund adjuvants, vaccine (protein, left off: small tags and cut ends) MTLTTKLSALAIAGIMAVIGAPMVTQSAMASGRAPAPDAATTQPKLVTGDITSTDQSGTHLFFGKNIVRNAKGAIMKVDRTWPAAVPAPLPDVRADSSTRMLLGPVVDLAVNEHPAGVFYRIPALATASNGDLLASYDLRPGSAADAPNPNSIVQRRSRDNGRTRGPQTVIHAGTLGRRKVGYSDPSYLVDPATGHILNFHVKSYDRGFATSEVGTDPDDRHVLHAEVSTSTDNGHTWTYRDITREITPDPTTRTRFVASGQGIALLHGPHAGGLIAQMTVRNSVGQQAQSIYSDDHGITWHAGNPVGRMMDENKVVELSDGTLMLNSRDAARSGRRKVAYSHDGGLTWGPVKLVDDLIDPTNNAQIIRAYPNARAGSAKARILLFTNARNATERVNGTLSVSCDDGRTWVSHQTYMPGEVGYTTAAVQSDGALGVLWERDGIRYSTIPMGWLNSVCPVAPSGRPTSGEPTSGTSLPLTATPSGSLHGGASSRPTSLPHTGD	–	61%
